# Some of the results follow. The full chains were built here from the parent and the listed change. Inactive controls read about 0.05.
# B1: TEV protease; numbered along this chain (parent)
# chain: MGESLFKGPRDYNPISSSICHLTNESDGHTTSLYGIGFGPFIITNKHLFRRNNGTLVVQSLHGVFKVKDTTTLQQHLVDGRDMIIIRMPKDFPPFPQKLKFREPQREERICLVTTNFQTKSMSSMVSDTSCTFPSGDGIFWKHWIQTKDGQCGSPLVSTRDGFIVGIHSASNFTNTNNYFTSVPKNFMELLTNQEAQQWVSGWRLNADSVLWGGHKVFMVKPEEPFQPVKEATQL
# Variants of: B1
# Experiment: raw area under fraction-flipped curve 0-4 h after induction (AUC4h, not background-subtracted), DNA-recorder readout of cleavage of the substrate (dimensionless); higher = more cleavage of the substrate by the protease variant
# Conditions: temperature: 34 °C; time window: 0-4 h after rhamnose induction
# 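Note: Bxb1 expression induced with 0.2% (w/v) L-rhamnose at OD600 near 0.5, cultures sampled hourly, flipped fraction per protease–substrate barcode pair counted by paired-end Illumina sequencing.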
Variant,area with substrate ENLFFQS,area with substrate ENLKFQS,area with substrate ENLNFQS,area with substrate ENLPFQS,area with substrate ENLRFQS,area with substrate ENLSFQS,area with substrate ENLTFQS,area with substrate ENLWFQS,area with substrate ENLDFQS,area with substrate ENLEFQS
V217R,0.058,0.0696,0.0506,0.0486,0.0826,0.0657,0.0522,0.0685,–,–
V217G,–,0.0503,–,0.078,–,–,–,0.0471,0.0454,0.0536
R87G,0.0731,0.0654,0.0437,–,–,–,–,–,–,–
I167H,0.1,–,0.0475,0.064,0.0698,0.0511,–,0.0566,–,–
E223G,–,–,0.0484,–,–,–,–,–,–,–
I145H,0.0726,0.0775,0.0619,–,–,–,–,0.0536,–,–
N172K,0.0461,0.0645,–,0.0663,–,0.0746,–,–,–,–
N172Y,0.058,0.0559,–,–,–,–,–,–,–,–
T181S,0.0928,0.0735,0.0797,0.0651,0.0542,–,0.0641,–,0.0679,0.0432
G8E,–,0.0785,–,–,–,–,–,–,–,–
I164K,–,–,0.0664,–,0.0519,–,–,0.0566,–,–
N193R,0.123,–,0.0668,–,–,–,–,–,0.0731,–
N193D,–,0.0735,–,–,–,0.101,–,–,0.0671,–
I86G,0.0803,0.0452,–,–,–,0.0358,–,0.0295,–,–
Q227F,0.0752,–,–,0.0697,–,0.0558,–,–,–,0.0764
Q227R,–,–,0.0614,–,0.0689,0.0495,–,–,0.0536,–
F187W,0.0745,0.0516,0.0636,–,0.058,0.0508,0.0501,0.0535,0.0577,0.0514
F187T,0.075,–,0.0259,–,–,–,–,–,0.0693,0.0592
F187L,0.0575,0.0456,0.0609,0.0742,0.0813,0.0434,0.0724,–,0.0635,0.0676

Variant,area with substrate ENLFFQS,area with substrate ENLKFQS,area with substrate ENLNFQS,area with substrate ENLPFQS,area with substrate ENLRFQS,area with substrate ENLSFQS,area with substrate ENLTFQS,area with substrate ENLWFQS,area with substrate ENLDFQS,area with substrate ENLEFQS
Q197S,0.0908,0.0717,0.0634,–,0.0746,–,–,–,0.058,0.0602
Q197P,0.0802,0.0841,–,0.0656,0.0879,–,–,–,0.0719,0.041
Q197F,–,0.0776,0.0684,–,0.0769,0.0634,0.0845,–,–,–
M219H,0.0746,0.0565,0.0784,–,0.0628,0.0659,–,–,0.0727,–
H215M,0.0664,0.0694,–,–,0.0683,–,–,–,0.065,–
Q146L,0.124,0.101,0.0733,–,–,–,–,–,–,–
Y34K,0.0611,–,0.0928,–,–,–,–,–,–,–
L190Q,0.0852,0.0932,–,–,0.0614,0.0804,–,0.0673,0.0684,0.0537
Q59A,0.0794,–,0.0711,–,–,–,–,0.0818,–,–
L33C,0.108,–,0.0525,0.0681,–,0.0699,–,–,–,0.0617
Q194V,–,–,–,0.0607,0.0693,–,–,–,–,0.0627
P228C,0.0757,0.0947,0.0632,–,0.0681,0.0641,–,0.0569,0.0611,0.064
N206K,–,0.0859,–,–,0.0594,–,0.0924,–,0.0635,0.0529
H143I,0.0545,0.0715,–,0.0552,0.0664,–,–,–,–,–
N175W,0.0911,0.0705,–,–,–,–,–,–,–,–
M188I,0.0643,0.0995,–,0.0446,–,0.0489,–,–,0.0673,–
I84P,–,–,0.0239,–,–,–,–,–,–,–
S182T,0.0809,0.0509,–,0.0621,0.0526,–,–,–,0.0598,–
C131Y,–,–,–,–,–,–,–,0.0737,–,0.061

# Same assay, conditions: temperature: 34 °C; time window: 0-4 h after rhamnose induction
Variant,area with substrate ENLHFQS,area with substrate ENLLFQS,area with substrate ENLQFQS,area with substrate ENLVFQS,area with substrate ENLMFQS,area with substrate ENLIFQS,area with substrate ENLGFQS
V217G,0.0502,0.0528,0.0552,0.0637,–,–,–
I167H,–,–,0.0681,0.0474,0.0478,–,–
E223G,0.0602,–,–,–,–,–,–
I145H,–,–,–,0.08,–,–,–
N172K,–,–,–,–,–,0.0695,–
N172Y,0.0656,–,0.0674,0.0651,–,–,–
T181S,0.0694,–,–,–,–,–,–
I164K,–,0.0722,–,–,–,0.0356,–
N193R,0.0627,–,–,–,–,–,0.0701
N193D,0.0469,0.0914,–,–,–,–,–
I86G,–,0.0482,0.0231,–,–,–,–
Q227F,0.0675,0.07,0.0859,0.067,0.0638,0.0957,–
Q227R,–,–,–,–,0.0779,–,–
F187W,0.0657,–,0.0707,0.0674,–,0.0732,–
F187T,0.0757,–,0.0588,–,–,–,–
F187L,–,0.0636,–,–,–,0.092,–
Q197S,0.068,0.0656,0.0667,–,–,0.0825,–

Variant,area with substrate ENLHFQS,area with substrate ENLLFQS,area with substrate ENLQFQS,area with substrate ENLVFQS,area with substrate ENLMFQS,area with substrate ENLIFQS,area with substrate ENLGFQS
Q197F,–,–,0.054,–,0.0738,–,0.0709
M219H,0.0681,–,0.0634,0.0827,0.0667,0.0737,0.0565
Q146L,0.0634,–,0.0775,–,–,–,–
Y34K,–,–,–,–,–,0.0877,–
L190Q,–,–,–,0.0862,0.0681,–,0.0635
Q59A,–,–,–,–,–,0.108,0.0707
L33C,–,0.0607,0.0589,–,–,0.102,–
Q194V,–,0.0813,0.0738,0.0981,–,0.0857,–
P228C,0.0465,0.0715,–,0.0868,0.0626,0.0767,–
N206K,–,0.0773,–,–,–,–,–
H143I,–,0.0746,–,–,0.0538,0.0721,–
N175W,–,–,–,–,–,0.0713,–
M188I,0.0696,0.063,–,–,0.104,0.0916,–
I84P,–,0.0284,–,–,–,–,–
S182T,–,–,–,–,0.0751,–,–
C131Y,–,–,0.0711,–,–,–,–

# Source: the supplement of paper PMC12217912
